Measurements taken from PubChem BioAssay.
Inconclusive means that the source gave no clear call. Such entries were picked first, then a sample of the others. The source made the active and inactive calls.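 Rule for the calls, unless noted: active = cell viability at or below a set limit in both duplicate runs, the limit being the all-compound median minus 4 SD (cut at about 23% in these data, passing the limit was not always enough); inconclusive = no clear call, values can overlap the other calls; inactive = the rest.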

What was measured:
[1] = viability of HCT116 without oncogenic beta-catenin – human colon tumor cells, pilot screen (AID 823); details: HCT116 beta-catenin knockout viability, CellTiter-Glo, 60 h; at 10 µM; stronger effect = lower value;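 note: 0% = wells killed by 20 µM Hyamine and 100% = untreated DMSO cell wells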
[2] = RAM pathway blockade in budding yeast – dse1pr::URA3 reporter, 5-FOA selection, pilot screen (AID 869;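 active = inhibition over a set limit, the all-compound mean plus 3 SD, in both replicate runs; inconclusive = over that limit in just one replicate run; inactive = at or under that limit in both runs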;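 note: 0% = DMSO wells with no growth and 100% = 10 µM 1-NA-PP1 with full growth; RAM network block rescues cells from 5-FOA so hits raise OD615 growth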); details: S. cerevisiae dse1pr::URA3 5-FOA growth, OD615, 2 d; at 10 µM; stronger effect = higher value; strain carries analog-sensitive mutant Cbk1 kinase
[3] = viability of PTEN-null HCT116 cells – cell-based, HCT116 clonal line, CellTiter-Glo, pilot screen (AID 824;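 active = viability at or below 27.92% in each of two runs, the all-compound median minus 4 SD; inconclusive = no clear call, values can overlap the other calls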;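 note: 0% = 20 µM Hyamine control and 100% = vehicle cell control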); details: HCT116 PTEN-deleted viability, 60 h, at 10 µM, stronger effect = lower value

Compound | viability [1] | inhibition [2] | viability [3]
CC(=O)c1cccc(NC(=O)CCNS(=O)(=O)c2cccc3nsnc23)c1 | inconclusive: 91.7% | inactive: 1.73% | 
Cc1cc(NC(=O)CSc2nc3c(c(=O)n2CCc2ccccc2)SC(C)C3)no1 (stereo not drawn) | inactive: 89.5% | inconclusive: 3.94% | 
Cc1c(C(=O)NCc2ccccc2)oc2ccc(S(=O)(=O)N3CCC4(CC3)OCCO4)cc12 | inconclusive: 76.3% | inactive: 3.6% | 
Cc1ccccc1CN1C(=O)C(O)(CC(=O)c2ccncc2)c2ccccc21 (stereo not drawn) | inconclusive: 36.4% | inactive: 1.28% | inconclusive: 47.3%
O=C(CS(=O)(=O)c1cn(Cc2cccc(F)c2)c2ccccc12)N1CCCCC1 | inactive: 73.2% |  | inconclusive: 65.9%
CCNc1nc(Oc2ccc(C(=O)OCC)cc2)nc(SC)n1 | inconclusive: 93.9% |  | inactive: 78.9%
CC(=O)C1=C(N2CCCCC2)CCC1=O | inactive: 94.5% | inconclusive: 4.1% | 
COCCCNc1nc2c(c(=O)[nH]c(=O)n2C)n1CC(O)COc1ccccc1C (stereo not drawn) | inactive: 98.9% | inconclusive: 2.81% | 
COC(=O)c1nnc(-c2ccccc2)c(-c2ccccc2)n1 | inactive: 104% | inconclusive: 3.31% | 
CCOC(=O)N1CCN(C(=O)c2ccc(N3C(=O)c4ccccc4C3=O)cc2)CC1 | inactive: 99% | inconclusive: 3.96% | 
Cc1cc(NC(=O)c2ccc3c(c2)C(=O)N(C2CCCCC2)C3=O)no1 | inconclusive: 65.1% | inconclusive: 4.58% | 
CCOC(=O)C1CCN(S(=O)(=O)C(F)(F)c2nc3ccccc3s2)CC1 | inactive: 82.2% | inconclusive: 7.8% | 
CCSC1=C(C#N)C(c2cccc(O)c2)CC(=O)N1 (stereo not drawn) | inactive: 98.2% | inconclusive: 4.47% | 
CCCOCCOC(=O)c1[nH]c2c(c1C)C(=O)CC(c1cc(OC)ccc1OC)C2 (stereo not drawn) | active: 17.3% | inconclusive: 4.99% | active: 20.6%
CCCCOc1ccccc1NC(=O)CC1Nc2ccccc2NC1=O (stereo not drawn) | inconclusive: 27% | inconclusive: 4.15% | inconclusive: 30.7%
